{"source": "paper PMC4336329", "about": "(PLoS ONE, 2015)", "note": "In all, about 310,000 compounds went through this assay and about 14,000 (4.5%) showed an effect of 50% or more. Effects have a minus sign here. The list shows a part of the results.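 Also: peak tail current of the secondary pulse compared with the same well before compound.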", "data": [{"molecular_target": "human ether-à-go-go-related gene (hERG) potassium channel (human, UniProt Q12809)", "sequence (Q12809 whole entry, looked up)": "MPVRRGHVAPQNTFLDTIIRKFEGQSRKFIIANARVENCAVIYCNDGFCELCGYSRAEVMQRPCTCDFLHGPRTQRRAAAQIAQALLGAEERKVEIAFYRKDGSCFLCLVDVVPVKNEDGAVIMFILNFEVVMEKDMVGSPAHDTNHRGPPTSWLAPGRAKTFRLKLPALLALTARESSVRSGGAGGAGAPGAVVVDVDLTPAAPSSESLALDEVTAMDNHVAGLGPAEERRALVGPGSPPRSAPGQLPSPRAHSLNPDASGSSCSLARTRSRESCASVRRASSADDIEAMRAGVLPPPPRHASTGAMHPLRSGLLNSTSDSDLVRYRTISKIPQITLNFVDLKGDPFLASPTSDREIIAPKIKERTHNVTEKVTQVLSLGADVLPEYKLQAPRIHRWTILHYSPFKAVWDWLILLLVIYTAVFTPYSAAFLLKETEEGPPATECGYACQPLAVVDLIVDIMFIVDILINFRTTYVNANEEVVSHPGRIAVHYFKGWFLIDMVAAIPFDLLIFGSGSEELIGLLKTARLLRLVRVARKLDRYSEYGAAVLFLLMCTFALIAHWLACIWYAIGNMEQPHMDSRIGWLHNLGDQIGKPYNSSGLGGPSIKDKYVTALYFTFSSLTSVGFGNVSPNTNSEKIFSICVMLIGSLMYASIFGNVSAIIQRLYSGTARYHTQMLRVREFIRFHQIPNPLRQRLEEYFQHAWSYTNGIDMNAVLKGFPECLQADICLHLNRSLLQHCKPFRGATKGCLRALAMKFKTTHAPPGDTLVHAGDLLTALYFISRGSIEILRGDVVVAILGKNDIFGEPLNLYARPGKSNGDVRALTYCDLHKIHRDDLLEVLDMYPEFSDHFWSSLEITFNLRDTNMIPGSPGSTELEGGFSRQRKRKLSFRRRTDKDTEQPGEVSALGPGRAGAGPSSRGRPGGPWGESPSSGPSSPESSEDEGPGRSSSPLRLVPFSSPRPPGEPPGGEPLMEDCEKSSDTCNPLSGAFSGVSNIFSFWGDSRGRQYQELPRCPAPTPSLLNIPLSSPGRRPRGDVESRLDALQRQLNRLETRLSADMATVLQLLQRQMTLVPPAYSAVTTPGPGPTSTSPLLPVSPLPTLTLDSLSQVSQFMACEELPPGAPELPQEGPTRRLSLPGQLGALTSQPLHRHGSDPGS", "assay": "primary screen, population patch clamp on CHO cells stably expressing hERG", "units": {"hERG current change (%, negative = inhibition) at 10uM": "%"}, "values": [{"smiles": "O=C(COC(=O)CCc1ccc(S(=O)(=O)N2CCOCC2)cc1)NCc1ccccc1", "hERG current change (%, negative = inhibition) at 10uM": 6.25}, {"smiles": "COc1ccc(N2CCN(C(=O)C(=O)c3cn(CC(=O)N4CCCCCC4)c4ccccc34)CC2)cc1", "hERG current change (%, negative = inhibition) at 10uM": -18.3}, {"smiles": "CCn1c2c(c3cc(C(=O)O)ccc31)CCCC2=O", "hERG current change (%, negative = inhibition) at 10uM": 18.5}, {"smiles": "CC(C)c1ccc(N(CC(=O)N2CCOCC2)S(C)(=O)=O)cc1", "hERG current change (%, negative = inhibition) at 10uM": 6.33}, {"smiles": "C/C(N)=C(/C#N)C(=O)COc1ncnc2ccc(Br)cc12", "hERG current change (%, negative = inhibition) at 10uM": 3.99}, {"smiles": "CCCC1=C/C(=C/c2ccc(-c3ccccc3OC)o2)C(=O)O1", "hERG current change (%, negative = inhibition) at 10uM": -7.77}, {"smiles": "Nc1c(C(=O)Nc2ccc(F)cc2)sc2nc(-c3ccco3)ccc12", "hERG current change (%, negative = inhibition) at 10uM": -9.67}, {"smiles": "Cc1cc(C(=O)NNC(=O)Cc2ccc(Cl)cc2)c(C)o1", "hERG current change (%, negative = inhibition) at 10uM": -12.5}, {"smiles": "CCc1ccc(C2CC(c3cccc(Cl)c3)n3nc(N)nc3N2)cc1", "note": "(stereo not shown)", "hERG current change (%, negative = inhibition) at 10uM": -8.81}, {"smiles": "C=CCn1c(=S)[nH]c2cc(C(=O)NCCc3ccc(S(N)(=O)=O)cc3)ccc2c1=O", "hERG current change (%, negative = inhibition) at 10uM": -0.634}, {"smiles": "Cc1scc(C(=O)N/N=C/c2ccsc2)c1C", "hERG current change (%, negative = inhibition) at 10uM": 1.93}, {"smiles": "CCOC(=O)N1CCN(C(=O)COc2cc(=O)n(CC)c3ccccc23)CC1", "hERG current change (%, negative = inhibition) at 10uM": -17}, {"smiles": "O=C(Cn1cc([N+](=O)[O-])cn1)NCc1ccccc1Cl", "hERG current change (%, negative = inhibition) at 10uM": 6.14}, {"smiles": "O=C(C1CCCN1S(=O)(=O)c1cccc2nsnc12)N1CCN(c2ccc(F)cc2)CC1", "note": "(stereo not shown)", "hERG current change (%, negative = inhibition) at 10uM": -69.3}, {"smiles": "Cc1cc(NC(=O)COC(=O)CC2CCCC2)c([N+](=O)[O-])cc1C", "hERG current change (%, negative = inhibition) at 10uM": 9.34}, {"smiles": "CCOc1ccc(C(=O)NCC2(c3ccccc3)CCOCC2)cc1", "hERG current change (%, negative = inhibition) at 10uM": 10.8}, {"smiles": "COc1cc(CN2CCCC(C(=O)c3ccccc3SC)C2)cc(OC)c1", "note": "(stereo not shown)", "hERG current change (%, negative = inhibition) at 10uM": -74.4}, {"smiles": "CCOC(=O)CC1C(=O)NCCN1C(=O)c1ccc(Cl)cc1Cl", "note": "(stereo not shown)", "hERG current change (%, negative = inhibition) at 10uM": 0.912}, {"smiles": "COc1ccc(S(=O)(=O)N2CCN(c3cc(-c4ccccc4)nc4ncnn34)CC2)cc1", "hERG current change (%, negative = inhibition) at 10uM": -53.3}, {"smiles": "Cc1cc(=O)n2nc(N3CCC(C(=O)N4CCN(Cc5ccccc5)CC4)CC3)sc2n1", "hERG current change (%, negative = inhibition) at 10uM": -19.3}, {"smiles": "c1ccc(-c2csc(N3CCc4ccccc4C3)n2)cc1", "hERG current change (%, negative = inhibition) at 10uM": 3.84}, {"smiles": "O=[N+]([O-])c1ccc(O)c(C(C#Cc2ccccc2)N2CCOCC2)c1", "note": "(stereo not shown)", "hERG current change (%, negative = inhibition) at 10uM": -10.1}, {"smiles": "Cc1csc(NC(=O)Cc2ccc(Cl)cc2)n1", "hERG current change (%, negative = inhibition) at 10uM": -2.32}, {"smiles": "Cc1ccc(N(C)S(=O)(=O)c2cccc(C(=O)NC3=NCCS3)c2)cc1", "hERG current change (%, negative = inhibition) at 10uM": -7.76}, {"smiles": "C=CCn1c(SCC(=O)c2ccc(F)cc2)nnc1-c1ccc2c(c1)OCO2", "hERG current change (%, negative = inhibition) at 10uM": -30.4}, {"smiles": "C=CCn1c(O)c(N=NC(=O)CNC(=O)/C=C/c2ccc(OC)cc2)c2ccccc21", "hERG current change (%, negative = inhibition) at 10uM": -15.7}, {"smiles": "O=C(O)c1ccc[nH]c1=S", "hERG current change (%, negative = inhibition) at 10uM": 10.3}, {"smiles": "CCN(C(=O)COC(=O)/C=C/c1nc2ccccc2s1)C1CCS(=O)(=O)C1", "note": "(stereo not shown)", "hERG current change (%, negative = inhibition) at 10uM": 7.73}, {"smiles": "Cc1cc(NC(=O)CN2C(=O)CCSc3ccccc32)no1", "hERG current change (%, negative = inhibition) at 10uM": 10.1}, {"smiles": "O=C(O)CSC(=S)N1CCCC1", "hERG current change (%, negative = inhibition) at 10uM": -1.47}, {"smiles": "Cc1cccc(Nc2nc(N)nc(CCl)n2)c1", "hERG current change (%, negative = inhibition) at 10uM": -0.698}, {"smiles": "Cc1ncc([N+](=O)[O-])n1CCOC(=O)NC(NCc1cccnc1)C(Cl)(Cl)Cl", "note": "(stereo not shown)", "hERG current change (%, negative = inhibition) at 10uM": 1.91}, {"smiles": "COc1cccc(N2CCN(Cc3nc(N)nc(Nc4ccccc4)n3)CC2)c1", "hERG current change (%, negative = inhibition) at 10uM": -68}, {"smiles": "CCOC(=O)N1CCN(C(=O)C2CCN(S(=O)(=O)c3ccc(F)cc3)CC2)CC1", "hERG current change (%, negative = inhibition) at 10uM": -19.3}, {"smiles": "CC(=O)O[C@H]1CC[C@@]2(C)[C@@H](CC[C@H]3[C@@H]4CC[C@H](C(C)O)[C@@]4(C)CC(=O)[C@@H]32)C1", "note": "(stereo partly shown)", "hERG current change (%, negative = inhibition) at 10uM": -16.9}, {"smiles": "Cn1c(N)c(C(=O)CSc2nnc(C3CC3)n2Cc2ccccc2)c(=O)[nH]c1=O", "hERG current change (%, negative = inhibition) at 10uM": 10.4}, {"smiles": "CC(C)OC(=O)COc1cc(O)c2c(=O)cc(-c3ccccc3)oc2c1", "hERG current change (%, negative = inhibition) at 10uM": 11.3}, {"smiles": "C=C/C(C)=C/C[C@H]1C(=C)CCC2[C@](C)(C(=O)O)CCC[C@@]21C", "note": "(stereo partly shown)", "hERG current change (%, negative = inhibition) at 10uM": 2.32}, {"smiles": "CC(C)c1ccc(NC(=O)C(c2ccc3c(c2)OCO3)N2CCC3(CC2)OCCO3)cc1", "note": "(stereo not shown)", "hERG current change (%, negative = inhibition) at 10uM": -14.8}, {"smiles": "Cc1cc([N+](=O)[O-])nn1CCCC(=O)N1CCN(c2ccc(F)cc2)CC1", "hERG current change (%, negative = inhibition) at 10uM": -53.2}, {"smiles": "O=C(CNC(=O)c1nc[nH]c1C(=O)N1CC[NH2+]CC1)OCc1ccccc1.[Cl-]", "hERG current change (%, negative = inhibition) at 10uM": 6.22}, {"smiles": "CCCN1C2CCCC1CC(NC(=O)c1cc(OC)c(OC)c(OC)c1)C2", "note": "(stereo not shown)", "hERG current change (%, negative = inhibition) at 10uM": 6.39}, {"smiles": "COc1ccc(NC(=O)CSc2nc3ccccc3cc2Cc2ccccc2)cc1", "hERG current change (%, negative = inhibition) at 10uM": 7.89}, {"smiles": "O=C(CSc1ccccc1)NCCc1ccccc1", "hERG current change (%, negative = inhibition) at 10uM": 12}, {"smiles": "Cc1ccc(N2CCN(c3ccc(C)cc3)C2c2ccncc2)cc1", "hERG current change (%, negative = inhibition) at 10uM": -2.05}, {"smiles": "Cc1ccc(S(=O)(=O)N2[C@@H](c3ccccc3)C(C(=O)O)=CC[C@H]2c2cccs2)cc1", "hERG current change (%, negative = inhibition) at 10uM": 17.9}, {"smiles": "COc1cc([N+](=O)[O-])ccc1NC(=O)Cc1ccc(C)cc1", "hERG current change (%, negative = inhibition) at 10uM": 21.6}, {"smiles": "O=C(NCCc1ccccc1Cl)C1CCN(S(=O)(=O)c2cccs2)CC1", "hERG current change (%, negative = inhibition) at 10uM": -34.8}, {"smiles": "N#Cc1c(Cc2cccc3ccccc23)nn(CCO)c1N", "hERG current change (%, negative = inhibition) at 10uM": 2.92}, {"smiles": "O=C1CCC([N+](=O)[O-])C(c2cc(Br)ccc2F)N1", "note": "(stereo not shown)", "hERG current change (%, negative = inhibition) at 10uM": 18.1}, {"smiles": "O=C(CC1C(=O)NCCN1Cc1c(F)cccc1Cl)NC1CCCCCC1", "note": "(stereo not shown)", "hERG current change (%, negative = inhibition) at 10uM": -12.2}, {"smiles": "CCOC(=O)CCNC(C(=O)OCC)c1ccccc1", "note": "(stereo not shown)", "hERG current change (%, negative = inhibition) at 10uM": -1.97}, {"smiles": "COc1ccc(C(=O)Nc2ccc(C3(C#N)CCCC3)cc2)cc1", "hERG current change (%, negative = inhibition) at 10uM": 5.73}, {"smiles": "COc1cc2c(cc1OC)C(C(=O)N1CCCCC1)C(c1ccccc1F)N(C)C2=O", "note": "(stereo not shown)", "hERG current change (%, negative = inhibition) at 10uM": 9.92}, {"smiles": "COc1ccc(OC)c(C2C(C(C)=O)=C(O)C(=O)N2Cc2cccnc2)c1", "note": "(stereo not shown)", "hERG current change (%, negative = inhibition) at 10uM": -4.66}]}]}
